From paper PMC10415138
Where a chain is given by its changes, count along the chain named. No constants are given. Whether binding was seen depends on the method and setting. For part of these data: In cells and extracts the contact can be indirect. Some binding calls cover weakened binding; strength is not graded here. For part of these data: Tags and fused reporters may be left off the sequences shown. Values belong to the molecule of their own block, whether it stands above or below them.

By UniProt entry, the sequences of proteins in these tests, tags left out.
UniProt Q9NRN9: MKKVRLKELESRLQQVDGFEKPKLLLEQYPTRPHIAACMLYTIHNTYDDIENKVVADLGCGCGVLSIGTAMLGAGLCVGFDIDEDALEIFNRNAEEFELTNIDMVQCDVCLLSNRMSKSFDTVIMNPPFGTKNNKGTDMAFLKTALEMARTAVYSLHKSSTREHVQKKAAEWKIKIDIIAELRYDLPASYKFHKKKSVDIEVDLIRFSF

Experiments:
[1] = biological target: T1, TRMT112-WT-BirA*-HA (human) (UniProt Q9UI30); assay: co-IP; co-IP of TRMT112 WT or T5R with METTL5 (Supplementary Figure S1A); bait, tags and beads not shown
T1 sequence: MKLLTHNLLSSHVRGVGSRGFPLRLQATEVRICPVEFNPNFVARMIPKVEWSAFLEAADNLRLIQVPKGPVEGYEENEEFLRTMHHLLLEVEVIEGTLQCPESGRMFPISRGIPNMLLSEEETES

[2] = biological target: T1, TRMT112-WT-BirA*-HA (human); assay: co-IP; HEK293T cells expressing TRMT112-WT-BirA*-HA, TRMT112-T5R-BirA*-HA or BirA*-HA without biotin; anti-HA beads; with or without benzonase; western blot of the MTases
[3] = biological target: T2, TRMT112-T5R-BirA*-HA (human) (UniProt Q9UI30); assay: as above
T2 sequence: T1 sequence with T5R

BtTHUMPD2 (Bos taurus) = biological target: T3, BtTHUMPD2 (Bos taurus) (UniProt E1B8U2); assay: SEC-MALS; complexes co-expressed in E. coli and co-purified by the His tag of the MTase, ion exchange and SEC; 100 ul at 1 mg/ml on Superdex 200 Increase 10/300 GL; both purified
T3 sequence: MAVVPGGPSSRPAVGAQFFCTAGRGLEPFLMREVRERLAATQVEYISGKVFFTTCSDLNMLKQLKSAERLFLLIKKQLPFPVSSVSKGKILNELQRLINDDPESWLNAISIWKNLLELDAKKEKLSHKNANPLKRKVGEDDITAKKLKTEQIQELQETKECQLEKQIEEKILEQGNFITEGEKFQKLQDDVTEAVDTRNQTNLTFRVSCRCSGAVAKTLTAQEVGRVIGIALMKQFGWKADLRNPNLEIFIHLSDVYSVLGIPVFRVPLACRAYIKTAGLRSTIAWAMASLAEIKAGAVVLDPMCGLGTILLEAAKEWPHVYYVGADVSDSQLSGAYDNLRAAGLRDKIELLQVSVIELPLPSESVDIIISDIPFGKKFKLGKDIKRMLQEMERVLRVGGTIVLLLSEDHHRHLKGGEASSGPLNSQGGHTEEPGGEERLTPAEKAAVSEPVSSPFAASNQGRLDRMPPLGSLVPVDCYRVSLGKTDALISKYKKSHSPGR

3 × Flag-THUMPD3 (human) = biological target: T4, 3 × Flag-THUMPD3 (human) (UniProt Q9BV44); assay: co-IP; reverse co-IP with 3 × Flag-THUMPD2 or -THUMPD3 as bait; TRMT112 detected in the IP fractions (Supplementary Figure S1C)
T4 sequence: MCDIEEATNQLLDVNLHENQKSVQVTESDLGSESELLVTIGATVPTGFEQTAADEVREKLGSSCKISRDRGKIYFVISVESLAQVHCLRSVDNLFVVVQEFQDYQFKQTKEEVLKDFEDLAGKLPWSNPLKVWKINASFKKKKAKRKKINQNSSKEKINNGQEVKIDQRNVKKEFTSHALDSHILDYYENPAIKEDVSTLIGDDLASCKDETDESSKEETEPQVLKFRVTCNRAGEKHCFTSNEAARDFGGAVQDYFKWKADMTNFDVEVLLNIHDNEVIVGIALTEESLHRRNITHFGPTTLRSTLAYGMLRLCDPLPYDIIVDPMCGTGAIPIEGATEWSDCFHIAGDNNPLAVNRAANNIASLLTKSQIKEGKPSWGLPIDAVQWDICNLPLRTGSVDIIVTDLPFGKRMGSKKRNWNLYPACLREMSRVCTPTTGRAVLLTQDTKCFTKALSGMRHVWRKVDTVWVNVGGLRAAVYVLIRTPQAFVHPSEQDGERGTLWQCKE

3 × Flag-THUMPD2 (human) = biological target: T5, 3 × Flag-THUMPD2 (human) (UniProt Q9BTF0); assay: as above
T5 sequence: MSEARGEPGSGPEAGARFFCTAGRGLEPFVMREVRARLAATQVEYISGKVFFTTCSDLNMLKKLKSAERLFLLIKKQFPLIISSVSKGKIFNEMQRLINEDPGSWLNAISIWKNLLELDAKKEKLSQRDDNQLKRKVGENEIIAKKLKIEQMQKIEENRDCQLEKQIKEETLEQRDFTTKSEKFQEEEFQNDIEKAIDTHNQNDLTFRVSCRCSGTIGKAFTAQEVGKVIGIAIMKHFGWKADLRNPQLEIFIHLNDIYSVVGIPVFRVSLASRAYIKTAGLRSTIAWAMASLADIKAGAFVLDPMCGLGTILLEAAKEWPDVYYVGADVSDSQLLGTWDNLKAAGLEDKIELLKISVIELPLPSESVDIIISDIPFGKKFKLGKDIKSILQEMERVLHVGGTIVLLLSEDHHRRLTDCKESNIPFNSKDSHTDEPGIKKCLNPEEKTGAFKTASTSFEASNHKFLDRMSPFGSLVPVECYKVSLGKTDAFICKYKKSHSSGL

[4] = biological target: T6, TRMT11 (recombinant, C-terminally His6 tagged) (human) (UniProt Q7Z4G4); assay: SEC-MALS; complexes co-expressed in E. coli and co-purified by the His tag of the MTase, ion exchange and SEC; 100 ul at 1 mg/ml on Superdex 200 Increase 10/300 GL; both purified
T6 sequence: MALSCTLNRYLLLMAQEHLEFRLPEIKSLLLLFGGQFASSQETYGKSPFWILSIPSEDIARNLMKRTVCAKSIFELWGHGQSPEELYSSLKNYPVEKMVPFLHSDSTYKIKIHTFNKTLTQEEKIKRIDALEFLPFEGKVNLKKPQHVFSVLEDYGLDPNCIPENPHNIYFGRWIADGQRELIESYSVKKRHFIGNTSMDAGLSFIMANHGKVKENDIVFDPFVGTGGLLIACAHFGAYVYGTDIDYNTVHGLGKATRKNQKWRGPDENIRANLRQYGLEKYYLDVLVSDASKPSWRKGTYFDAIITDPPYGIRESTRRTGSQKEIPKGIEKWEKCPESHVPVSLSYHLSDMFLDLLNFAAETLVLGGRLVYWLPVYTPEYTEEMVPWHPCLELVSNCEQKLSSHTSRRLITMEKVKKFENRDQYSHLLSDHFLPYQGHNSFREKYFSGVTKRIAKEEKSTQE

[5] = biological target: T7, THUMPD3 (recombinant, of the human THUMPD3-TRMT112 complex) (human) (UniProt Q9BV44); assay: as above
T7 sequence: T4 sequence

Molecule: METTL5 (from UniProt Q9NRN9 1-209) (enzyme)
binding [1]: binds

B2: BtTRMT112 (protein, UniProt Q2KIA2 1-125)
chain: MRLLTHNLLSSHVRGVGPRGFPLRLQATEVRINPVEFNPDFIVRMIPKVEWAALLEAADHLHLIQVPKEPIQGYEHNEEFLRKMHHVLLEVEVLEGTLQCPESGRVFPISRGIPNMLLSDEETET
binding (BtTHUMPD2 (Bos taurus)): binds

B5: THUMPD2 (enzyme, UniProt Q9BTF0 1-503)
chain: T5 sequence
binding [2]: binds
binding [3]: no binding

B6: THUMPD3 (enzyme, UniProt Q9BV44 1-507)
chain: T4 sequence
binding [2]: binds
binding [3]: no binding

Next, values leading:

binding [2]: binds
binding [3]: no binding
B1: TRMT11 (enzyme, UniProt Q7Z4G4 1-463)
chain: T6 sequence

binding (3 × Flag-THUMPD3 (human)): binds
binding (3 × Flag-THUMPD2 (human)): binds
B3: TRMT112 (protein, UniProt Q9UI30 1-125)
chain: T1 sequence

binding [4]: binds
binding [5]: binds
B4: TRMT112 (recombinant, untagged) (protein, UniProt Q9UI30 1-125)
chain: T1 sequence
